Experimental findings from ChEMBL document CHEMBL5308541, “MAIP: An Open-Source Tool to Enrich High-Throughput Screening Output and Identify Novel, Druglike Molecules with Antimalarial Activity” (ACS Med Chem Lett, 2023) are described below.

Hit rate of the full screen: of about 150,000 compounds, about 540 (0.36%) showed an effect of 50% or more. This is one part of the list.

This assay relates to Plasmodium falciparum. Nature of the assay: Primary screen in NF54 nanoGlo assay, in single point, at 2uM, 72h; a lower Z score goes with more inhibition. Type of assay: functional, Erythrocyte. The note with it: timepoint 72 hour.
Usually % Inhibition stands for the relative decrease from the control value, in per cent. Turning to `O=C(c1cc2sccc2[nH]1)N1CCC(Nc2nccs2)CC1`, the “% Inhibition” value is -15% and the Z score was determined as 2.96.
In the case of `CN(C)C(=O)CN1CCC(NC2CCN(Cc3ccccc3)CC2)C(O)C1` (configuration not stated), the “% Inhibition” value turned out to be 1% and the Z score was -0.17.
In the same order, the values of `CCOc1c(Cl)cccc1CC(=O)N1CCOC2CNCC21` (configuration not stated) are -3% and 0.47.
In the same order, the values of `CCC(C)C(NC(=O)C1Nc2ccccc2NC1=O)C(=O)NC1CC(C)(C)NC(C)(C)C1` (configuration not stated) are -2% and 0.33.
Take `CNc1ccnc(N2CC(CO)C(CN3CCC(CO)CC3)C2)n1` (configuration not stated): the “% Inhibition” value is recorded as -4% and the Z score is recorded as 0.75.
Take `CC(C)(C)OC(=O)NC[C@H](Nc1cncc(-n2cccn2)n1)C1CCCCC1`: the “% Inhibition” value came to 8% and the Z score was -1.29.
`Fc1cc(F)cc(-n2ncc3c2CCC[C@@H]3NC2CCN(Cc3cccnc3)CC2)c1`: the “% Inhibition” value is recorded as -9% and the Z score is 1.53.
In the same order, the values of `CN1CCN(CC2CN(Cc3nc(-c4ccccc4)cs3)CC2CO)CC1` (configuration not stated) are 3% and -0.58.
For the compound `Nc1cncc(-c2ccc(C(=O)N[C@@H]3CCC[C@H]3OCc3ccccc3)cc2)c1`, the “% Inhibition” value is -3% and the Z score is listed as 0.55.
The corresponding values for `Cn1cc(CNC2CC(C)(C)NC(C)(C)C2)c(-c2cccs2)n1` are 5% and -0.99.
On to `Cc1cc(C)n([C@H]2CCN(C(=O)NC3CCN(C4CCN(C)CC4)CC3)C2)n1`, for which the “% Inhibition” value was -3% and the Z score turned out to be 0.66.
In the same order, the values of `COc1cc(N2CCC(N3CCN(c4ccccn4)CC3)C(O)C2)nc(N)n1` (configuration not stated) are 0% and -0.03.
Regarding `O=C([C@@H]1CCCNC1)N1CCC(c2cc(C3CCNCC3)n[nH]2)CC1`, the “% Inhibition” value turned out to be 0% and the Z score was 0.04.
With `COc1cncc(-c2ccc(C(=O)N3CCC4(O)CCNCC4C3)cc2)c1` (configuration not stated), the “% Inhibition” value is given as -3% and the Z score stood at 0.57.
Take `c1cc(NCc2cccc3[nH]ccc23)cc(Oc2cnccn2)c1`: the “% Inhibition” value is recorded as -3% and the Z score is recorded as 0.59.
As to `Fc1cnccc1NCC1CCN(C2CCCC2)CC1`, the “% Inhibition” value is listed as 0% and the Z score is reported as -0.05.
Regarding `Cc1cccc(NC2CCN(CCN3CCOC[C@@H]3C)CC2)n1`, the “% Inhibition” value was 2% and the Z score was -0.3.
The corresponding values for `COc1ccc(OCc2cc(C(=O)N[C@H]3CCCCNC3=O)no2)c2ccccc12` are 3% and -0.64.
Regarding `C=C1CC23CC4C5C6(C)CC(OC(C)=O)CC57C2C(O)C1C(O)C3(O)C7N4C6` (configuration not stated), the “% Inhibition” value was -15% and the Z score amounted to 2.61.
As for `Fc1ccccc1OC1CCN(Cc2cccc(OCCN3CCOCC3)c2)CC1`, the “% Inhibition” value is -7% and the Z score was 1.53.
With `Oc1nc2cc(Cl)ccc2cc1CN1CC(O)C(Cc2ccnc3ccccc23)C1` (configuration not stated), the “% Inhibition” value is -1% and the Z score was found to be 0.15.
With `NC(=O)[C@H](CNc1ncnc2[nH]ccc12)Cc1ccc(F)cc1`, the “% Inhibition” value amounted to 21% and the Z score is -3.73.
The corresponding values for `CN(C)[C@H]1CCN(C(=O)c2ccc(-c3ncnc4[nH]ccc34)cc2)C1` are -3% and 0.59.
In the same order, the values of `O=C(O)c1cc(NS(=O)(=O)C[C@H]2CCCO2)cc(C(F)(F)F)c1` are -6% and 1.36.
The corresponding values for `N#Cc1c(N)nc2c(c1N)[C@@H](c1ccccc1)c1ccc3ccccc3c1O2` are 0% and -0.08.
For `CC(C)COC(=O)N[C@H]1CN[C@H](C(=O)N2CCN(c3ccncc3)CC2)C1`, the “% Inhibition” value is reported as -10% and the Z score is 2.14.
Regarding `COc1cc(C(=O)O)cc(C(=O)N2CC3CC(O)C(O)CC3C2)c1` (configuration not stated), the “% Inhibition” value is given as 3% and the Z score is on record as -0.65.
The corresponding values for `COCCn1ccc(NCc2cccc(-c3ccncc3)c2)n1` are -8% and 1.43.
For the compound `Clc1ccccc1C1(c2ccnc(NCCN3CCCC3)n2)CCNCC1`, the “% Inhibition” value is recorded as -11% and the Z score was determined as 1.88.
In the same order, the values of `Cn1cc(-c2cncc(C(=O)NCCC3CCC(F)(F)CC3)c2)cn1` are 0% and 0.03.
Regarding `C[C@H](Nc1cc(C2CCNCC2)ncn1)c1ccc2c(c1)OCCCO2`, the “% Inhibition” value is recorded as -2% and the Z score is 0.29.
As to `CC(=O)N1CCC(N[C@H]2CC(C)(C)[C@@H]3C[C@@](C)(O)CC[C@]23CCC(=O)NCCc2c[nH]c3ccccc23)CC1`, the “% Inhibition” value was 4% and the Z score is listed as -0.64.
With `Cc1cc(CC2CN(Cc3cc(F)cc(Cl)c3)CC2O)on1` (configuration not stated), the “% Inhibition” value was -7% and the Z score was 1.56.
In the same order, the values of `Cc1cccc(OC2CCN(C(=O)c3cc4ccc(Cl)cc4[nH]3)CC2)n1` are 2% and -0.49.
In the same order, the values of `Cc1nc(=S)sn1-c1nc(Nc2ccccc2)nc(Nc2ccccc2)n1` are -4% and 0.68.
The corresponding values for `CN(C(=O)CC1CCOC1)C1CS(=O)(=O)c2ccc(Cl)cc21` (configuration not stated) are -3% and 0.61.
As to `O=C(c1cc(-c2ccc(F)cc2)c[nH]1)N1CC[C@H](Oc2cccc3cccnc23)C1`, the “% Inhibition” value is reported as -12% and the Z score is 2.14.
In the same order, the values of `O=C(c1ccc(-c2ccncc2)cc1)N1CCC(O)(CN2CCCC2)CC1` are -5% and 1.05.
Consider `CN1CCN(c2cc(NC3CCC(C(F)(F)F)CC3)ncn2)CC1=O` (configuration not stated), for which the “% Inhibition” value is -13% and the Z score is listed as 2.24.
As to `Cc1noc(-c2ccc(N[C@@H](C)c3cc(F)ccc3N3CCC(O)CC3)nc2)n1`, the “% Inhibition” value was 3% and the Z score is -0.54.
In the same order, the values of `CC(CNc1nc(NCC(C)N2CCOCC2)c2cc(Cl)ccc2n1)N1CCOCC1` (configuration not stated) are 78% and -13.62.
